Screen size: about 370,000 compounds; about 1,100 (0.3%) were called active. Inconclusive results, whose numbers are uncertain, are shown with a selection of clear calls. The call rests on the fitted dose curve; in most records, active means well fitted activation curve with a large enough effect; inconclusive means small, poorly fitted or top-dose-only effect; inactive means flat fitted curve, though single readings scatter. Potencies of inconclusive entries are doubtful fits and often do not repeat.
Target: Relaxin receptor 1 (Homo sapiens) (UniProt Q9HBX9)
Sequence of UniProt Q9HBX9 (Q9HBX9 whole entry, looked up): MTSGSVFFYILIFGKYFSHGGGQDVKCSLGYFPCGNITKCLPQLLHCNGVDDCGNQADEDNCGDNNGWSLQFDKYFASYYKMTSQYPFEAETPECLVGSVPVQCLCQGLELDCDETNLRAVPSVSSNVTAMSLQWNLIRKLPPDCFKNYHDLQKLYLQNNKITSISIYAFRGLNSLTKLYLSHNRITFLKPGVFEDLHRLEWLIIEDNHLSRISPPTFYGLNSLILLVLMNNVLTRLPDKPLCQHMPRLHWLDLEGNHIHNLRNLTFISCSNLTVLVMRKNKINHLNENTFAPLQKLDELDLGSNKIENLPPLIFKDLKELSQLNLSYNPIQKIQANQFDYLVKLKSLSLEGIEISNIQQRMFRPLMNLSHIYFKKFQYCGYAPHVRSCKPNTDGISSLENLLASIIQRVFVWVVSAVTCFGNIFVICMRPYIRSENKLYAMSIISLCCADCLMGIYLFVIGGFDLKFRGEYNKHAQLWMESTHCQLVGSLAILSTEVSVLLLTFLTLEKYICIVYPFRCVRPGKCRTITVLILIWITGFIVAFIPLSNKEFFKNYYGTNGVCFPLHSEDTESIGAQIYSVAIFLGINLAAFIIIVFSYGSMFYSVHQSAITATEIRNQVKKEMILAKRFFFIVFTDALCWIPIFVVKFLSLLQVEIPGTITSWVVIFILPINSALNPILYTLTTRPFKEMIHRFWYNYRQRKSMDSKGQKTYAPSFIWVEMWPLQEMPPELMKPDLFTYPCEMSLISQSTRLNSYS
Experiment: qHTS Assay for Agonists of the Relaxin Receptor RXFP1; further: nearly all actives have a fitted effect of over 60% in size
Conditions: HEK293T-RXFP1 cAMP TR-FRET, 30 min; series mostly up to 57.5 µM; activation: at the top concentration
From the text: NIH Chemical Genomics Center [NCGC] NIH Molecular Libraries Probe Production Centers Network [MLPCN] MLPCN Grant: R03 MH085705-01A1 Assay Submitter (PI): Alexander Agoulnik NCGC Assay Overview: The relaxin hormone is involved in the variety of biological functions in normal tissues and diseases. The role of relaxin is well-established in female reproduction and parturition, mammary gland and endometrial development, maintenance of myometrial quiescence during pregnancy. Relaxin signaling through its G protein-coupled receptor (GPCR) RXFP1 results in ECM remodeling through regulation of collagen deposition, cell invasiveness, proliferation and overall tissue homeostasis. […] Recombinant human relaxin (rhRlx) is currently being tested in clinical trials as a protective agent in congestive heart failure, in treating severe preeclampsia, and as an anti-fibrotic agent in systemic sclerosis. Upon relaxin binding RXFP1 activation leads to the activation of adenylate cyclase (AC) via Gs. cAMP will activate PKA, which phosphorylates many signaling proteins. Thus, detection of cAMP increase is an easy and reliable indication of relaxin receptor activation. To screen for agonists of the relaxin receptor, a HEK293T cell line stably transfected with RXFP1 was used. RXFP1 activation was assayed by changes in cAMP levels as detected with a time-resolved fluorescence energy transfer (TR-FRET) cAMP detection kit.
NCGC Assay Protocol Summary: This is a cell-based assay for cAMP second messenger response to screen for agonists of the RXFP1 receptor. The assay was conducted in the presence of a PDE4 inhibitor (Ro 20174). The cells were lysed and the cAMP levels were measured with a TR-FRET cAMP kit. Presence of cAMP in the cell lysate disrupts binding between the cryptate-labeled anti-cAMP and d2-labeled cAMP pair, leading to a decrease in the TR-FRET signal. Data were normalized to the controls for basal activity (buffer only) and 100% activity (29 nM porcine relaxin). The EC50 values were determined from concentration-response data modeled with the standard Hill equation 1536-well assay protocol for the HEK293 RXFP1 cAMP assay: (1) Add 3 ul HEK293 RXFP1 cell culture. 2000 cells/well in DMEM/F12, 10% FBS, 1x Pen/Strep (dispensed offline with MultiDrop Combi). (2) Incubate 16-24 hr at 37C, 5% CO2. (3) Add 1 ul 400uM Ro20174 in DPBS, 0.05% BSA, 0.005% Tween 20. (3) Add 23 nl compounds in DMSO solution. Final concentration was 0.5 - 58 uM. (4) Incubate 30 min at 37C, 5% CO2. (5) Add 1 ul cAMP-d2 in lysis buffer (HTRF cAMP HiRange kit, CisBio). (6) Add 1 ul anti-cAMP antibody-cryptate in lysis buffer (HTRF cAMP HiRange kit, CisBio). (7) Incubate 30 min at room temperature. (6) Detect the assay plate in a ViewLux plate reader (PerkinElmer) with Ex=320 nm, Em1=615 nm and Em2=665 nm. Keywords: relaxin, RXFP1, RXFP2, G-protein coupled receptor, cAMP, agonist, high throughput screening, MLSMR, MLSCN, NIH Roadmap, qHTS and NCGC
On the % scale 0 is the no-effect control and ±100 the full control effect; potency means the concentration at half of the fitted maximal effect; tags describe the fitted curve by direction and shape.

Structure (SMILES) | Potency | activation
Nc1c(C(=O)Nc2ccc(Cl)c(C(F)(F)F)c2)sc2nc3c(cc12)N1CCC3CC1 | inconclusive: 25.1 µM [activator, partial curve] | –
S=C1CN=C(c2ccccc2)c2cc(Cl)ccc2N1 | – | inactive: -0.275%
FC(F)(F)C1=NC(C(F)(F)F)=NP(N2CCOCC2)(N2CCOCC2)=N1 | – | inactive: -1.71%
S=C1CN=C(c2ccccc2Cl)c2cc(Cl)ccc2N1 | – | inactive: -0.288%
COc1ccc(CN2CCCC(C(=O)c3ccc(Cl)cc3)C2)c(O)c1 (centres undefined) | – | inactive: 0.22%
COc1ccc(CCNc2nc3ccc(Cl)cc3n3cnnc23)cc1OC | inconclusive: 39.8 µM [activator, single point] | –
Cc1cc(/C=C2/C(=O)NC(=O)N(C)C2=O)c(C)n1-c1ccccc1 | inconclusive: 22.4 µM [activator, partial curve] | –
CCn1c(O)c(C=NCc2ccccc2)c(=O)[nH]c1=S | inconclusive: 35.5 µM [activator, single point] | –
COc1ccc(N/N=C/c2c(O)n(-c3ccc(C)c(C)c3)c(=O)[nH]c2=O)cc1 | – | inactive: -0.0014%
Cc1nn(CC(=O)N2CCC3(CC2)OCCO3)c(=O)c2cc3ccccc3n12 | inconclusive: 31.6 µM [activator, single point] | –
CCN(CC)C(=O)c1ccc(NC(=O)c2sccc2-c2ccccc2)cc1 | inconclusive: 25.1 µM [activator, partial curve] | –
Cc1cc(/C=C2\C(=O)NC(=O)N(c3ccc(Cl)cc3)C2=O)c(C)n1-c1sc2c(c1C#N)CCCC2 | – | inactive: 0.037%
CCCN(C(=O)c1cc2c(=O)oc3ccccc3c2s1)c1cccc(Cl)c1 | inconclusive: 39.8 µM [activator, single point] | –
CN1C(=O)/C(=C/c2cccn2-c2ccc3ccccc3c2)C(=O)NC1=S | – | inactive: 2.49%
O=C(Oc1c(Br)cc(Br)c2cccnc12)N1CCCCC1 | inconclusive: 22.4 µM [activator, partial curve] | –
O=c1c2ccccc2[nH]c(=S)n1-c1ccc2c(c1)OCCO2 | inconclusive: 39.8 µM [activator, single point] | –
CN1CCN(CC(=O)Nc2ccc(Cl)cc2C(=O)c2ccccc2)CC1 | – | inactive: -0.369%
CCC(CO)NC(=O)C1C=C2c3cccc4[nH]cc(c34)CC2N(C)C1 (centres undefined) | – | inactive: 4.18%
O=[N+]([O-])c1ccc(NCCO)c2ncccc12 | – | inactive: -0.623%
COCCCNC(=O)c1c(NC(=O)c2ccccc2Cl)n(Cc2ccccc2)c2nc3ccccc3nc12 | inconclusive: 28.2 µM [activator, partial curve] | –
O=C(O)CCC(=O)NNC(=O)COc1ccc2ccccc2c1Br | inconclusive: 20 µM [activator, partial curve] | –
Nc1c(C(=O)Nc2cccc(F)c2)sc2nc(-c3cccs3)ccc12 | inconclusive: 20 µM [activator, partial curve] | –
O=C(Cn1cnc2sc3c(c2c1=O)CCCC3)NCCC(=O)N1CCC2(CC1)OCCO2 | inconclusive: 20 µM [activator, partial curve] | –
Cc1cc(NC(=O)c2cccn(Cc3cccc(Cl)c3)c2=O)no1 | inconclusive: 22.4 µM [activator, single point] | –
Nc1cc(C(=O)Nc2ccc(Cl)cc2)ccc1N1CC2CC(C1)c1cccc(=O)n1C2 (centres undefined) | inconclusive: 31.6 µM [activator, partial curve] | –

Structure (SMILES) | Potency | activation
CCC(CO)(C(=O)OC1C[N+]2(C)CCC1CC2)c1ccccc1 (centres undefined) | – | inactive: -2.44%
COc1ccc(-n2nc(C(=O)NCC(=O)N3CCC4(CC3)OCCO4)c3ccccc3c2=O)cc1 | inconclusive: 15.8 µM [activator, partial curve] | –
O=c1[nH]c(O)c(C=Nc2cc(F)cc(F)c2)c(=O)[nH]1 | inconclusive: 35.5 µM [activator, single point] | –
C=CCN1C(=O)/C(=C/c2cccs2)C(=O)NC1=S | – | inactive: -1.73%
CC(C)CNC(=O)c1c(N)n(Cc2ccco2)c2nc3ccccc3nc12 | – | inactive: 1.53%
O=C(NCc1ccccc1)c1cccc(Nc2nc3ccccc3n3nnnc23)c1 | inconclusive: 39.8 µM [activator, single point] | –
CCN(C(=O)CN1CC=C(c2ccccc2)CC1)c1c(N)n(Cc2ccccc2)c(=O)[nH]c1=O | – | inactive: -0.418%
COc1ccc2oc(-c3cccc(NC(=O)c4ccc(C#N)cc4F)c3)nc2c1 | inconclusive: 39.8 µM [activator, single point] | –
Cc1cc(C)cc(-n2c(/C=C/c3cccc(F)c3)nc3ccccc3c2=O)c1 | – | inactive: 0.201%
CC(C)c1ccc(N2C(=O)NC(=O)/C(=C/C=C/c3ccco3)C2=O)cc1 | – | inactive: 0.101%
O=C1NC(=O)N(Cc2ccccc2Cl)C(=O)/C1=C/c1cccs1 | – | inactive: -0.525%
CCC(Oc1cc(Cl)ccc1Cl)C(=O)N1CCC2(CC1)OCCO2 (centres undefined) | inconclusive: 31.6 µM [activator, partial curve] | –
COc1ccccc1N=Cc1c(O)n(C)c(=O)n(C)c1=O | inconclusive: 35.5 µM [activator, single point] | –
Cn1cc(C=C(C#N)C#N)c2ccccc21 | – | inactive: -1.14%
CCC1(OC(=O)CN)C(=O)OCc2c1cc1n(c2=O)Cc2cc3ccccc3nc2-1 (centres undefined) | inconclusive: 31.6 µM [activator, partial curve] | –
O=C(O)c1cccc(N=Nc2c(O)[nH]c(=O)[nH]c2=O)c1 | – | inactive: 8.87%
COC(=O)c1sccc1NC(=O)c1ccc(C#N)cc1 | inconclusive: 39.8 µM [activator, single point] | –
O=C1OCc2cc(N=Nc3c(O)[nH]c(=O)[nH]c3=O)ccc21 | active: 10 µM | –
CCOc1cc(C)cc2oc(=O)c3c(c12)CCCC3 | inconclusive: 31.6 µM [activator, single point] | –
Cc1ccc(N2C(=O)NC(=O)/C(=C\C=C\c3ccco3)C2=O)cc1 | – | inactive: 1.65%
Cc1ccc(-n2nc3c(N4CCC(C(=O)NCCc5ccccc5)CC4)nnc(C)c3c2C)cc1 | inconclusive: 31.6 µM [activator, single point] | –
Cn1c(O)c(C=NCCN2CCOCC2)c(=O)n(C)c1=S | inconclusive: 25.1 µM [activator, partial curve] | –
COc1ccc(-c2nc(C)c(CCNC(=O)C(=O)Nc3c(C)cccc3C)s2)cc1OC | inconclusive: 31.6 µM [activator, single point] | –
CCN(c1ccc(C(O)(C(=O)OC)C(F)(F)F)cc1)S(=O)(=O)c1ccccc1 (centres undefined) | – | inactive: 2.57%
Cn1c(O)c(N=Nc2cccc(S(=O)(=O)N3CCOCC3)c2)c(=O)n(C)c1=O | active: 10 µM | –

Structure (SMILES) | Potency | activation
CCOC(=O)c1ccc(NC(=O)c2cccn(Cc3ccccc3F)c2=O)cc1 | inconclusive: 31.6 µM [activator, single point] | –
Cc1[nH]c(=S)c(C#N)c2c1CCCC2 | inconclusive: 28.2 µM [activator, partial curve] | –
CCc1ccc(NC(=O)c2cnc3sc(N4CCCC4)nn3c2=O)cc1 | inconclusive: 39.8 µM [activator, single point] | –
CC(C)CCNC(=O)c1c(N)n(Cc2ccc3c(c2)OCO3)c2nc3ccccc3nc12 | – | inactive: 5.89%
Cc1nc2cc(F)ccc2n1C1CCN(Cc2nnnn2CCc2ccccc2)CC1 | – | inactive: 0.522%
CCn1c(O)c(/C=N/NC(=O)c2ccccc2)c(=O)[nH]c1=S | – | inactive: 0.105%
Cc1cc(OCC(=O)N2CCC(C(=O)O)CC2)c2c3c(c(=O)oc2c1)CCC3 | inconclusive: 31.6 µM [activator, partial curve] | –
COc1ccc(OC)c(N=Cc2c(O)n(Cc3ccccc3)c(=S)[nH]c2=O)c1 | inconclusive: 35.5 µM [activator, single point] | –
CC(C)Oc1cccc(C(=O)C2CCCN(Cc3ccon3)C2)c1 (centres undefined) | – | inactive: -0.985%
O=[N+]([O-])c1cccc(CN2CCN(Cc3ccc(Cl)cc3)CC2)c1 | – | inactive: 0.104%
N#Cc1ccc(NC(=O)CN2CCCC2)cc1Cl | – | inactive: 0.881%
Cc1ccc(CNC(=O)CCCn2c(=O)c3sccc3n(CC(=O)Nc3c(C)cccc3C)c2=O)cc1 | inconclusive: 31.6 µM [activator, single point] | –
CCN1C(=O)C(=C2C=C(C)OC(C)=C2)C(=O)N(CC)C1=S | inconclusive: 39.8 µM [activator, single point] | –
O=C(c1ccco1)c1cn(Cc2ccccc2)c2ccccc12 | – | inactive: 0.612%
CC[C@@H](CO)NC(=O)[C@@H]1C=C2c3cccc4c3c(cn4C)C[C@H]2N(C)C1 | inactive | –
O=c1oc2ccccc2c(O)c1[C@H]1c2ccc(O)cc2Oc2c1c(=O)oc1ccccc21 | active: 17.8 µM | –
NC(=O)c1ccc(NC(=O)c2cccn(Cc3ccccc3)c2=O)cc1 | inconclusive: 39.8 µM [activator, single point] | –
N#Cc1cc2c(nc1SCC(=O)Nc1ccc(Cl)c(C(F)(F)F)c1)C1CCN2CC1 | inconclusive: 39.8 µM [activator, single point] | –
O=C(Nc1ccccc1C(F)(F)F)c1cccn(Cc2ccccc2)c1=O | inconclusive: 39.8 µM [activator, single point] | –
O=c1c2cc(Br)ccc2[nH]c(=S)n1-c1ccccc1 | inconclusive: 39.8 µM [activator, single point] | –
COC(=O)C1=C(c2ccc(-c3ccccc3)c(F)c2)C[C@@H]2CC[C@H]1N2C(=O)NC(C)C | – | inactive: -0.231%
O=C(N/N=C/c1c(O)n(Cc2ccc(F)cc2)c(=S)[nH]c1=O)c1ccncc1 | – | inactive: 1.91%
N#Cc1cc2c(nc1SCC(=O)Nc1ccc(C(F)(F)F)cc1)C1CCN2CC1 | inconclusive: 31.6 µM [activator, single point] | –
CCn1c(O)c(C=Nc2ccc(S(N)(=O)=O)cc2)c(=O)[nH]c1=S | inconclusive: 39.8 µM [activator, single point] | –

— PubChem BioAssay AID2676 (National Center for Advancing Translational Sciences (NCATS), 2010)
